The values below come from DBAASP.

Test in all cases: ≥ marks a high value that may be exact or a test limit, other limits are often not marked
In assay [1] the test system is Staphylococcus aureus NCTC 8178.
Assay [2] concerns Bacillus megaterium.
For assay [3], the system named is Escherichia coli K-12 D31.
For assay [4], the system named is Enterobacter cloacae NCTC 10005.
Assay [5] has as its system Micrococcus luteus NCTC 2665.
For assay [6], the system named is Micrococcus luteus.
For assay [7], the system named is Enterobacter cloacae beta-12.
Assay [8] has as its system Bacillus megaterium NCIB 9376.
For assay [9], the system named is Klebsiella pneumoniae NCTC 8805.
Assay [10] has as its system Serratia marcescens NCTC 1377.
Assay [11] has as its system Aerococcus viridans.
Assay [12] relates to Pseudomonas aeruginosa NCTC 10662.
In assay [13] the test system is Bacillus subtilis NCIB 6276.
Assay [14] relates to Candida albicans NCPF 2082.
Assay [15] deals with Helicobacter pylori ATCC 43504.
The subject of assay [16] is Escherichia coli O111:B4.
Assay [17] concerns Staphylococcus aureus SAP 0017.
Assay [18] deals with Pseudomonas aeruginosa H103.
Assay [19] has as its system Staphylococcus aureus K147.
The test system of assay [20] is Bacillus subtilis.
For assay [21], the system named is Salmonella typhimurium C610.
Assay [22] has as its system Staphylococcus epidermidis.
Assay [23] deals with Enterococcus faecalis.
Assay [24] relates to Staphylococcus epidermidis C621.
The subject of assay [25] is Staphylococcus aureus ATCC 25923.
Assay [26] concerns Enterococcus faecalis ATCC 29212.
Assay [27] concerns Streptococcus mitis.
In assay [28] the test system is Pseudomonas aeruginosa K799.
Assay [29] deals with Streptococcus pneumoniae ATCC 49619.
The test system of assay [30] is Salmonella enterica subsp. enterica serovar Typhimurium ATCC 14028s.
For assay [31], the system named is Corynebacterium xerosis.
For assay [32], the system named is Streptococcus pyogenes ATCC 19615.
Assay [33] concerns Listeria monocytogenes.
Assay [34] concerns Escherichia coli UB1005.
Assay [35] relates to Pseudomonas aeruginosa PAO1.
Assay [36] has as its system Bacillus cereus ATCC 14579.
In assay [37] the test system is Enterococcus faecalis 1F-1.
The test system of assay [38] is Escherichia coli ATCC 25922.
The subject of assay [39] is Bacillus amyloliquefaciens ATCC 23842.
Assay [40] concerns Bacillus subtilis ATCC 6051.
Assay [41] relates to Proteus mirabilis ATCC 35659.
Assay [42] concerns Salmonella enterica ATCC H9812.
Assay [43] relates to Bacillus licheniformis ATCC 14580.
Assay [44] concerns Staphylococcus aureus ATCC 29213.
In assay [45] the test system is Enterococcus faecium 5F-10.
The subject of assay [46] is Staphylococcus aureus MR.
Assay [47] relates to Escherichia coli KpC+001812446.
For assay [48], the system named is Klebsiella pneumoniae KpC+001825971.
For assay [49], the system named is Klebsiella pneumoniae ATCC 13883.
The subject of assay [50] is Pseudomonas aeruginosa ATCC 27853.
Assay [51] deals with Escherichia coli KpC+002101123.

The structures appear in SMILES notation. In brackets after ≈: the same amount, converted by molar mass. Where only a bound is given, the exact number is not on record here.

In the case of `CC[C@H](C)[C@@H]1NC(=O)[C@@H]2CSSC[C@@H](C(=O)N[C@@H](CCCN=C(N)N)C(=O)N[C@@H](CC(N)=O)C(=O)O)NC(=O)[C@H](C(C)C)NC(=O)[C@@H]3CSSC[C@H](NC(=O)[C@H](C)NC(=O)[C@H](CO)NC(=O)[C@H](CC(=O)O)NC(=O)CNC(=O)[C@H](C(C)C)NC(=O)CNC(=O)[C@H](Cc4ccccc4)NC(=O)CNC(=O)[C@H](CO)NC(=O)[C@H](CC(C)C)NC(=O)[C@H](CC(C)C)NC(=O)[C@H](CC(=O)O)NC(=O)[C@@H](NC(=O)[C@@H](NC(=O)[C@H](C)N)[C@@H](C)O)CSSC[C@H](NC(=O)[C@H](Cc4ccc(O)cc4)NC(=O)CNC(=O)CNC(=O)[C@H](CCCN=C(N)N)NC(=O)[C@H](CC(N)=O)NC(=O)CNC(=O)[C@H](CCCN=C(N)N)NC(=O)[C@H](C)NC1=O)C(=O)N[C@@H](CC(N)=O)C(=O)N[C@@H](CO)C(=O)N[C@@H](CCCCN)C(=O)N[C@@H](CCCCN)C(=O)N[C@@H](C(C)C)C(=O)N3)C(=O)N[C@@H](C)C(=O)N[C@@H](C)C(=O)N[C@@H](Cc1cnc[nH]1)C(=O)N2` [ATCDLLSGFGVGDSACAAHCIARGNRGGYCNSKKVCVCRN], the MIC in assay [1] was 14.2 µM (≈ 57.9 µg/mL); in assay [2], 0.849 µM (≈ 3.46 µg/mL); in assay [3], at least 49 µM; in [4], 12.3 µM (≈ 49.9 µg/mL); in [5], 2.99 µM (≈ 12.2 µg/mL); in assay [6] it was 0.849 µM (≈ 3.46 µg/mL). The MIC in assay [7] was 1.7 µM (≈ 6.91 µg/mL); in [8], 2.35 µM (≈ 9.59 µg/mL); in assay [9], 12.3 µM (≈ 49.9 µg/mL); in assay [10] it was 12.3 µM (≈ 49.9 µg/mL); in assay [11], 0.849 µM (≈ 3.46 µg/mL); in assay [12], 12.3 µM (≈ 49.9 µg/mL). Also, the MIC in assay [13] was found to be 8.14 µM (≈ 33.2 µg/mL); in assay [14], 12.3 µM (≈ 49.9 µg/mL).

`CC[C@H](C)[C@H](NC(=O)[C@H](C)NC(=O)[C@H](CO)NC(=O)[C@H](CC(C)C)NC(=O)[C@@H](N)Cc1ccccc1)C(=O)N[C@H](C(=O)NCC(=O)N[C@@H](CCSC)C(=O)N[C@@H](CC(C)C)C(=O)N[C@@H](C)C(=O)N[C@@H](CCCCN)C(=O)N[C@@H](CC(C)C)C(=O)N[C@@H](Cc1ccccc1)C(N)=O)C(C)C` [FLSAIVGMLAKLF] registered an MIC in [15] of at least 50 µM.

On to `CC[C@H](C)[C@H](NC(=O)[C@H](C)NC(=O)[C@@H]1CCCN1C(=O)CNC(=O)[C@H](C)NC(=O)[C@@H](NC(=O)[C@H](CCCCN)NC(=O)[C@H](CC(C)C)NC(=O)CNC(=O)[C@H](CCC(N)=O)NC(=O)[C@H](CC(C)C)NC(=O)[C@H](C)NC(=O)[C@H](CCCN=C(N)N)NC(=O)[C@H](CCCN=C(N)N)NC(=O)[C@H](Cc1c[nH]c2ccccc12)NC(=O)[C@H](Cc1c[nH]c2ccccc12)NC(=O)[C@H](CCCCN)NC(=O)[C@@H](N)CCCCN)[C@@H](C)O)C(=O)N[C@@H](CCC(N)=O)C(=O)N[C@@H](CO)C(=O)N[C@H](C(=O)N[C@@H](CC(C)C)C(=O)N[C@@H](CC(N)=O)C(=O)N[C@@H](CCCCN)C(=O)O)C(C)C` [KKWWRRALQGLKTAGPAIQSVLNK], for which the MIC was 11.6 µM (≈ 32 µg/mL) in [16]; at least 46.5 µM in [17]; at least 46.5 µM in assay [18]; at least 46.5 µM in assay [19]; at least 46.5 µM in assay [20]; 5.82 µM (≈ 16 µg/mL) in assay [21]. For the same compound, the MIC in assay [22] and in assay [23] was at least 46.5 µM throughout.

Regarding `CC[C@H](C)[C@H](NC(=O)[C@H](CCCN=C(N)N)NC(=O)[C@H](CS)NC(=O)[C@H](CC(C)C)NC(=O)[C@H](CCCN=C(N)N)NC(=O)[C@@H](N)CCCN=C(N)N)C(=O)N[C@H](C(=O)N[C@@H](Cc1c[nH]c2ccccc12)C(=O)N[C@H](C(=O)N[C@H](C(=O)N[C@@H](CCCN=C(N)N)C(=O)N[C@H](C(=O)N[C@@H](CS)C(=O)N[C@@H](CCCN=C(N)N)C(=O)N[C@@H](CCCN=C(N)N)C(=O)O)C(C)C)[C@@H](C)CC)C(C)C)C(C)C` [RRLCRIVWVIRVCRR], the MIC was 16.1 µM (≈ 32 µg/mL) in assay [24]; over 32.3 µM in assay [25]; over 32.3 µM in [26]; 1.01 µM (≈ 2 µg/mL) in assay [27]; at least 32.3 µM in assay [28]; at least 32.3 µM in [29]. The MIC in assay [30] is at least 32.3 µM; in [31], 1.01 µM (≈ 2 µg/mL); in assay [32] it was 16.1 µM (≈ 32 µg/mL); in assay [33], 2.02 µM (≈ 4 µg/mL); in assay [34], at least 32.3 µM.

As for `CC(C)C[C@H](NC(=O)[C@H](CC(C)C)NC(=O)[C@H](CCC(=O)O)NC(=O)[C@H](CC(=O)O)NC(=O)[C@@H](NC(=O)[C@H](CCCN=C(N)N)NC(=O)[C@@H](N)CO)C(C)C)C(=O)O` [SRVDELL], the MIC in assay [35] was over 154 µM; in assay [36] it was at least 154 µM; in [37], at least 154 µM; in assay [38] it was over 154 µM; in assay [39], at least 154 µM; in [40], at least 154 µM. Moreover, the minimum inhibitory concentration (MIC) in assay [41] was at least 154 µM; in assay [42], at least 154 µM; in [43], at least 154 µM; in assay [44], over 154 µM; in assay [45], at least 154 µM.

With `CC[C@H](C)[C@H](NC(=O)[C@@H](N)C(C)C)C(=O)N[C@@H](Cc1cnc[nH]1)C(=O)NCC(=O)N[C@@H](CC(C)C)C(=O)N[C@@H](Cc1ccccc1)C(=O)N[C@@H](CC(=O)O)C(=O)N[C@H](C(=O)N[C@H](C(=O)N[C@@H](CCCCN)C(=O)N[C@@H](CCCCN)C(=O)N[C@H](C(=O)N[C@@H](C)C(=O)N[C@@H](CO)C(=O)N[C@H](C(=O)N[C@H](C(=O)NCC(=O)NCC(=O)N[C@@H](CC(C)C)C(N)=O)[C@@H](C)CC)C(C)C)C(C)C)[C@@H](C)CC)C(C)C` [VIHGLFDVIKKVASVIGGL], the MIC in assay [25] is 4 µM (≈ 7.86 µg/mL); in assay [46], 16 µM (≈ 31.4 µg/mL); in [47], at least 33 µM; in assay [48], at least 33 µM; in assay [38], over 33 µM; in assay [49] it was at least 33 µM. Besides, the MIC was over 33 µM in assay [50] and 16 µM (≈ 31.4 µg/mL) in assay [51].

Broadly, the MIC is the smallest concentration in the dilution series that meets the test's criterion for growth inhibition.
